Test results reported in PubChem BioAssay AID1745853 (National Center for Advancing Translational Sciences (NCATS), 2022).
The other results are listed elsewhere or left out. The main result of the screen is listed elsewhere. These columns were measured beside it and carry no call.

Legend:
Test in all cases: Primary Screen for Target Class Profiling of Small Molecule Inhibitors of Methyltransferases
[1] = molecular target: Guanidinoacetate N-methyltransferase (Homo sapiens) (UniProt Q14353); details: purified enzyme, MTase-Glo SAH luminescence; measured here: GAMT inhibition; at 40 µM; stronger effect = lower value
Text: (§1) PI: Matthew D. Hall Ph.D. and Quinlin M. Hanson Ph.D.
(§2) National Center for Advancing Translational Sciences (NCATS)
(§3) National Institute of Health (NIH), Rockville, MD
(§4) Target class profiling (TCP) is a chemical biology approach amenable to investigating understudied biological targets. TCP is achieved by developing a generalizable assay platform and applying it to screen a curated set of compound libraries against representative members of a target class. Small molecule methyltransferases (SMMTase) are a subclass of methyltransferase that act on metabolites to modulate signaling pathways, metabolize xenobiotics, or balance the available methyl pool. We screened four curated libraries totaling 27,574 unique compounds against the SMMTases nicotinamide N-methyltransferase (NNMT), phenylethanolamine N-methyltransferase (PNMT), histamine N-methyltransferase (HNMT), glycine N-methyltransferase (GNMT), catechol O-methyltransferase (COMT), and guanidinoacetate N-methyltransferase (GAMT). The data generated by this TCP can be leveraged for informed tool molecule development. For example, in the associated publication we identified a chemotype of HNMT-selective inhibitors. Additionally, we identified a putative SMMTase-selective inhibitor with potential as a tool molecule for studying broader methyltransferase biology.
(§5) High-through put screening assays were developed at the National Center for Advancing Translational Science (NCATS) for the enzymes NNMT, PNMT, HNMT, GNMT, COMT, and GAMT. Enzymatic activity was measured as a function of SAM cofactor conversion using the MTase Glo kit (Promega) for all enzymes. All assays were performed in 1536-well format with substrates and SAM concentrations at KM values. Enzyme concentration and assay timing were optimized for 10-20% SAM conversion. Initial screening of 27,574 compounds was done as single-point assays using the highest compound concentration (40 uM). […] These compounds were replated in 11-point dose response and assayed against NNMT, PNMT, HNMT, GNMT, COMT, GAMT, and a counter-assay. The IC50 and efficacy (maximal response) values were determined for each dose-response curve. These values are also accounted for in the area under the curve (AUC) values.
(§6) PROTOCOL TABLE (as described by Inglese J, Shamu CE and Guy RK. 2007)
(§7) SEQUENCE No. (e.g., 1, 2, 3, etc.); […] (e.g., Cells, Incubation, Reagent, etc.); VALUE; DESCRIPTION.
(§8) 1; Reagent; 2 uL; SMMTase Enzyme (2x) in reaction buffer, columns 1- 48.
(§9) 2; Reagent; 1 uL; SAM (4x) in reaction buffer, columns 1-48.
(§10) 3; Controls; 23 nL; DMSO in column 4; sinefungin in DMSO (0 uM - 40 uM) in 7-point 1:2 dilution series (n = 2) in column 2.
(§11) 4; Compounds; 23 nL; Columns 5-48.
(§12) 5; Reagent; 1 uL; Substrate (4x) in reaction buffer, columns 2-48.
(§13) 6; Time; 20-30 min; Incubation.
(§14) 7; Reagent; 1 uL; MTase-Glo reagent (5X), columns 1-48.
(§15) 8; Time; 30 min; Incubation.
(§16) 9; Reagent; 5 uL; MTase-Glo Detection reagent, columns 1-48.
(§17) 10; Time; 30 min; Incubation, luminescence evolution.
(§18) 11; Detection; Luminescence; ViewLux uHTS Microplate Imager (PerkinElmer).
(§19) NOTES (numbers refer to Sequence numbers above)
(§20) 1, 2, 5. White Medium Binding Greiner 1536-well plates (Cat #789175-F, Greiner Bio-One, Monroe, NC); Reaction buffer: 50 mM Tris, pH 8.0, 3 mM MgCl2, 1 mM EDTA, 50 mM NaCl, 1 mM DTT, and 0.1 mg/mL BSA. Evaporation was prevented by covering assay plates with metal lids containing holes to allow gas diffusion.
(§21) 1. Six SMMTase were profiled: HNMT, GNMT, PNMT, COMT, NNMT, GAMT
(§22) 5. The corresponding substrate was used for each enzyme: HNMT - 5.3 uM Histamine; GNMT - >500 uM Glycine; PNMT - 16.2 uM Norephinephrine; COMT - 13.7 uM Norephinephrine; NNMT - 3.8 uM Nicotinamide; GAMT - 2.5 uM Guanidinoacetate.6, 8, 10. Room temperature
(§23) 6. Final reaction conditions: 10 nM COMT, 5 uM SAM, 15 uM norepinephrine, 50 mM Tris, pH 8.0, 3 mM MgCl2, 1 mM EDTA, 50 mM NaCl, 1 mM DTT, and 0.1 mg/mL BSA; refer to tables 2 and S1 for specific timing.
8. […]

[2] = molecular target: Nicotinamide N-methyltransferase (Homo sapiens) (UniProt P40261); details: purified enzyme, MTase-Glo SAH luminescence; measured here: NNMT inhibition; at 40 µM; stronger effect = lower value
Text: as §1, §2, §3, §4, §5, §6, §7, §8, §9, §10, §11, §12, §13, §14, §15, §16, §17, §18, §19, §20, §21, §22, §23
8. […]

[3] = molecular target: Phenylethanolamine N-methyltransferase (Homo sapiens) (UniProt P11086); details: purified enzyme, MTase-Glo SAH luminescence; measured here: PNMT inhibition; at 40 µM; stronger effect = lower value
Text: as §1, §2, §3, §4, §5, §6, §7, §8, §9, §10, §11, §12, §13, §14, §15, §16, §17, §18, §19, §20, §21, §22, §23
8. […]

[4] = molecular target: Glycine N-methyltransferase (Homo sapiens) (UniProt Q14749); details: purified enzyme, MTase-Glo SAH luminescence; measured here: GNMT inhibition; at 40 µM; stronger effect = lower value
Text: as §1, §2, §3, §4, §5, §6, §7, §8, §9, §10, §11, §12, §13, §14, §15, §16, §17, §18, §19, §20, §21, §22, §23
8. […]

[5] = molecular target: Histamine N-methyltransferase (Homo sapiens) (UniProt P50135); details: purified enzyme, MTase-Glo SAH luminescence; measured here: HNMT inhibition; at 40 µM; stronger effect = lower value
Text: as §1, §2, §3, §4, §5, §6, §7, §8, §9, §10, §11, §12, §13, §14, §15, §16, §17, §18, §19, §20, §21, §22, §23
8. […]
On the % scale 0 is the no-effect control and ±100 the full control effect.

| Compound | activity change, negative = inhibition [1] | activity change, negative = inhibition [2] | activity change, negative = inhibition [3] | activity change, negative = inhibition [4] | activity change, negative = inhibition [5] |
| --- | --- | --- | --- | --- | --- |
| CC(NC(=O)c1ccccc1N=Cc1c(O)ccc2ccccc12)c1ccccc1 (stereo not drawn) | -13.7% | -34.1% | -34.1% |  |  |
| CC(C)CCn1c(=O)c2ccccc2n2c(SCc3ccccc3)nnc12 | 2.86% | -16.2% | -2.93% | -8.34% | 0.641% |
| COC(=O)c1ncn2c1C(=O)N(c1ccc3c(c1)OCCO3)C(C)(C(=O)NCc1ccccc1)C2 (stereo not drawn) | 0% | 4.6% | 7.24% | 5.63% | 12.4% |
| Cc1ccccc1N(C)C1CN([S+](=O)([O-])c2c(C)noc2C)C1 | -8.14% | -13.9% | 5.84% | -6.39% | -1.99% |
| CCCn1c(=O)c2ccc(C(=O)NC3CCCC3)cc2n2c(=O)n(Cc3ccccc3Cl)nc12 | 2.35% | -3.78% | -3.47% | 1.84% | 1.88% |
| CCO[C@H]1CN(C2CCN(c3ccc4c(c3)CCC4)CC2)C[C@@H]1O | 2% | -0.312% | 10.6% | -8.59% | -4.63% |
| OCC1CN(c2ccncn2)CC12CCN(Cc1cc(F)c(F)c(F)c1)CC2 (stereo not drawn) | -7.48% | -16.5% | -12.8% | -6.17% | -4% |
| O=C1N(CC2CCCCN2)CCN1c1ccccc1 (stereo not drawn) | 5.55% | -7.18% | 4.95% | 3.05% | 12% |
| Cc1ccc(C)c(N2CCN(C(=O)c3ccc4c(=O)nc5c(-c6ccccc6F)n[nH]n5c4c3)CC2)c1 | 4.37% | -14% | -4.09% | -23.5% | -8.41% |
| CC(C)CCn1c(=O)c2ccc(C(=O)NCC(C)C)cc2n2c(=O)n(C)nc12 | 1.42% | 12% | 9.93% | 8.99% | 7.06% |
| Cc1cc(CNC(=O)Cc2nonc2C)c2[nH]c(-c3ccccc3)c(C)c2c1 | -5.01% | -4.09% | -6.09% | -13.9% | -4.92% |
| O=C1NCC2(CCCN(C(=O)c3cnc4c(O)cccn4c3=O)C2)O1 (stereo not drawn) | -25.7% | -19.7% | -48% | -36.4% | -5.15% |
| CN(C)C(=O)N1C[C@@H]2CN(C3CCOCC3)C[C@]2(C(=O)O)C1 | 1.81% | 0.01% | 0.371% | 1.21% | 1.15% |
| COc1ccc(Cl)cc1NC(=O)CCC1CCCN(C(=O)CCc2scnc2C)C1 (stereo not drawn) | -7.58% | -16.5% | -11% | -6.78% | -3.35% |
| c1ccc(OCCCCN2CCOCC2)c(CNC2CCNC2)c1 (stereo not drawn) | -9.19% | -13.2% | -9.59% | -5.87% | -11.1% |
| CCOC(=O)c1c(C)nn(-c2cccc([N+](=O)[O-])c2)c1C | -1.83% | -16.1% | -0.311% | -3.26% | 9.83% |
